This is one part of the list.

One test has as its system HSkMC. As to the kind of experiment: cytotoxicity call (relative viability < 0.9). The conditions noted are these: 10 µM.
The next test relates to HepG2. The test is described as follows: cytotoxicity call (relative viability < 0.9). The conditions noted are these: 10 µM.
Another test has as its system S. aureus RN4220. As to the kind of experiment: growth inhibition call (relative growth <= 0.2). The conditions noted are these: 50 µM.

Take `C[C@@H]1CCCCO[C@@H](CN(C)Cc2ccc(C(F)(F)F)cc2)[C@H](C)CN([C@H](C)CO)C(=O)c2cc(NS(C)(=O)=O)ccc2O1`: the cytotoxicity call in the test on HSkMC and in the test on HepG2 was “inactive” each time. In the test with S. aureus RN4220, the growth inhibition call was “inactive”.
Consider `O=C(C[C@@H]1CC[C@H]2[C@@H](COC[C@@H](O)CN2C(=O)Nc2ccc(F)cc2)O1)NCCCN1CCOCC1`, for which the cytotoxicity call in the test with HSkMC and in the test with HepG2 was “inactive” each time. The growth inhibition call in the test with S. aureus RN4220 was “inactive”.
Turning to `C[C@H](CO)N1C[C@H](C)[C@@H](CN(C)S(C)(=O)=O)Oc2ccc(NC(=O)Nc3ccc(F)cc3)cc2CC1=O`, the cytotoxicity call in the test with HSkMC and in the test on HepG2 was “inactive” in each case. For the same compound, the growth inhibition call in the test on S. aureus RN4220 was “inactive”.
Regarding `CCCNC(=O)Nc1ccc2c(c1)OC[C@@H](C)N(Cc1ccc(-c3ccccn3)cc1)C[C@@H](C)[C@@H](OC)CN(C)C2=O`, the cytotoxicity call in the test with HSkMC and in the test with HepG2 was “inactive” in each case. In addition, in the test with S. aureus RN4220, the growth inhibition call is “inactive”.
Turning to `Cc1ccc(S(=O)(=O)N(C)C[C@H]2Oc3ncc(C#CC4(O)CCCC4)cc3C(=O)N([C@@H](C)CO)C[C@@H]2C)cc1`, the cytotoxicity call with HSkMC and in the test on HepG2 was “inactive” throughout. The growth inhibition call in the test with S. aureus RN4220 is “inactive”.
As to `Cc1ccc(-c2ccc3c(c2)O[C@H](CN(C)C(=O)CN(C)C)[C@H](C)CN([C@@H](C)CO)S3(=O)=O)cc1`, the cytotoxicity call with HSkMC and in the test on HepG2 was “inactive” each time. The growth inhibition call with S. aureus RN4220 is “inactive”.
As to `C[C@H](CO)N1C[C@H](C)[C@@H](CN(C)Cc2ccc(C(=O)O)cc2)Oc2c(NS(C)(=O)=O)cccc2C1=O`, the cytotoxicity call in the test with HSkMC and in the test with HepG2 was “inactive” throughout. The growth inhibition call with S. aureus RN4220 is “inactive”.
Regarding `Cc1noc(C)c1NC(=O)Nc1ccc2c(c1)CC(=O)N([C@H](C)CO)C[C@H](C)[C@@H](CN(C)S(=O)(=O)c1c(C)noc1C)O2`, the cytotoxicity call in the test on HSkMC and with HepG2 was “inactive” in each case. The growth inhibition call in the test on S. aureus RN4220 is “inactive”.
Regarding `COc1ccc(S(=O)(=O)N(C)C[C@@H]2Oc3c(NS(=O)(=O)c4cn(C)cn4)cccc3C(=O)N([C@@H](C)CO)C[C@H]2C)cc1`, the cytotoxicity call with HSkMC and in the test on HepG2 was “inactive” in each case. In the test with S. aureus RN4220, the growth inhibition call is “inactive”.
Turning to `COc1ccc(S(=O)(=O)N2C[C@H](O)COC[C@@H]3O[C@H](CC(=O)NCCN4CCCCC4)CC[C@H]32)cc1`, the cytotoxicity call in the test on HSkMC and with HepG2 was “inactive” each time. Besides, in the test with S. aureus RN4220, the growth inhibition call was “inactive”.
In the case of `C[C@@H]1CN([C@H](C)CO)C(=O)c2cc(NC(=O)Nc3ccccc3)ccc2O[C@@H](C)CCCCO[C@@H]1CN(C)Cc1ccccc1`, in the test with HSkMC, the cytotoxicity call is “inactive”. For the same compound, in the test on HepG2, the cytotoxicity call was “active”. The growth inhibition call in the test with S. aureus RN4220 is “inactive”.
For `C[C@@H]1CCCCO[C@H](CN(C)C(=O)Nc2ccccc2)[C@H](C)CN([C@@H](C)CO)C(=O)c2cc(NC(=O)Nc3ccccc3)ccc2O1`, the cytotoxicity call in the test on HSkMC and in the test with HepG2 was “inactive” in each case. In addition, the growth inhibition call with S. aureus RN4220 is “inactive”.
For the compound `C[C@@H]1CN([C@@H](C)CO)C(=O)c2cccc(NC(=O)C3CCOCC3)c2O[C@H]1CN(C)C(=O)Nc1ccccc1`, the cytotoxicity call with HSkMC and with HepG2 was “inactive” in each case. Also, in the test with S. aureus RN4220, the growth inhibition call was “inactive”.
On to `COc1ccccc1C#Cc1ccc2c(c1)O[C@H](CN(C)C(C)=O)[C@@H](C)CN([C@H](C)CO)S2(=O)=O`, for which the cytotoxicity call with HSkMC and in the test on HepG2 was “inactive” in each case. Besides, the growth inhibition call in the test with S. aureus RN4220 was “inactive”.
On to `Cc1c(C)c2ccc(O[C@@H]3O[C@H](CO)[C@H](O)[C@H](O)[C@H]3O)cc2oc1=O`, for which the cytotoxicity call with HSkMC and in the test with HepG2 was “inactive” throughout. For the same compound, the growth inhibition call with S. aureus RN4220 is “inactive”.
Turning to `C[C@@H]1CN([C@@H](C)CO)C(=O)c2cc(NC(=O)Nc3ccccc3)ccc2O[C@H]1CN(C)Cc1ccc(-c2ccccc2)cc1`, the cytotoxicity call with HSkMC was “inactive”. Also, in the test on HepG2, the cytotoxicity call was “active”. Moreover, the growth inhibition call with S. aureus RN4220 was “inactive”.
Regarding `CNC[C@H]1OCCCC[C@H](C)Oc2ccc(NC(=O)CCCN(C)C)cc2C(=O)N([C@@H](C)CO)C[C@@H]1C`, the cytotoxicity call in the test on HSkMC and in the test on HepG2 was “inactive” each time. In addition, the growth inhibition call with S. aureus RN4220 is “inactive”.
Regarding `C[C@H]1CCCCO[C@@H](CN(C)C(=O)Nc2cccc3ccccc23)[C@@H](C)CN([C@@H](C)CO)C(=O)c2cc(NC(=O)Cc3ccccc3)ccc2O1`, the cytotoxicity call in the test on HSkMC was “inactive”. Also, the cytotoxicity call in the test with HepG2 was “active”. For the same compound, the growth inhibition call with S. aureus RN4220 was “inactive”.
Turning to `CCS(=O)(=O)Nc1ccc2c(c1)C(=O)N(C)C[C@@H](OC)[C@@H](C)CN(CCC(F)(F)F)[C@@H](C)CO2`, the cytotoxicity call in the test on HSkMC and with HepG2 was “inactive” in each case. In addition, the growth inhibition call in the test on S. aureus RN4220 is “inactive”.
As to `COc1ccc(C)cc1S(=O)(=O)NCCO`, the cytotoxicity call in the test with HSkMC and in the test with HepG2 was “inactive” each time. In addition, in the test with S. aureus RN4220, the growth inhibition call was “inactive”.
In the case of `C[C@@H]1CN([C@H](C)CO)C(=O)c2cc(NC(=O)CCC(F)(F)F)ccc2O[C@@H](C)CCCCO[C@@H]1CN(C)S(=O)(=O)c1cccs1`, the cytotoxicity call with HSkMC and with HepG2 was “inactive” each time. In addition, the growth inhibition call with S. aureus RN4220 was “inactive”.
`CCCc1cc(=O)nc(SCC(N)=O)[nH]1`: the cytotoxicity call in the test on HSkMC and in the test with HepG2 was “inactive” in each case. Further, the growth inhibition call in the test on S. aureus RN4220 was “inactive”.
With `COc1ccc(NC(=O)N(C)C[C@H]2OCCCC[C@@H](C)Oc3ccc(NC(=O)Nc4ccccc4)cc3C(=O)N([C@@H](C)CO)C[C@H]2C)cc1`, the cytotoxicity call in the test on HSkMC and in the test with HepG2 was “inactive” each time. Further, the growth inhibition call in the test on S. aureus RN4220 is “inactive”.
For the compound `COc1ccc(S(=O)(=O)N(C)C[C@H]2Oc3c(NC(=O)NC(C)C)cccc3C(=O)N([C@H](C)CO)C[C@H]2C)cc1`, the cytotoxicity call in the test with HSkMC and in the test with HepG2 was “inactive” throughout. Further, in the test on S. aureus RN4220, the growth inhibition call is “inactive”.
For `CCN(CC)C(=S)SSC(=S)N(CC)CC`, the cytotoxicity call with HSkMC and in the test with HepG2 was “active” in each case. Also, the growth inhibition call in the test on S. aureus RN4220 was “active”.
As to `C[C@H]1CN([C@@H](C)CO)C(=O)Cc2cc(NC(=O)Cc3ccccc3)ccc2O[C@@H]1CN(C)C(=O)Nc1cccc2ccccc12`, the cytotoxicity call with HSkMC and with HepG2 was “inactive” throughout. For the same compound, the growth inhibition call in the test with S. aureus RN4220 was “inactive”.
With `CC(C)=CCC/C(C)=C/CC/C(C)=C/CC/C(C)=C/CO`, the cytotoxicity call in the test on HSkMC and in the test on HepG2 was “inactive” throughout. For the same compound, in the test with S. aureus RN4220, the growth inhibition call was “inactive”.
Regarding `C[C@H](CO)N1C[C@H](C)[C@@H](CN(C)Cc2ccc(C(F)(F)F)cc2)Oc2ccc(NC(=O)Nc3ccc4c(c3)OCO4)cc2C1=O`, the cytotoxicity call in the test on HSkMC (human skeletal muscle cells) and in the test on HepG2 was “inactive” throughout. Moreover, the growth inhibition call with S. aureus RN4220 was “inactive”.

Values taken from the antibiotic and cytotoxicity screens of Wong et al. (2023).
